Variants at the floor of the assay are shown more often than the library holds them.

B1: TPR 5TU (parent)
chain: GGAUCUUCUCGAUCUAACAAAAAAGACAAAUCUGCCACAAAGCUUGAGAGCAUCUUCGGAUGCAGAGGCGGCAGCCUUCGGUGGCGCGAUAGCGCCAACGUUCUCAACUAUGACACGCAAAACGCGUGCUCCGUUGAAUGGAGUUUAUCAUG

Variants of B1 are the subject of this series. Put plainly: polymerase ribozyme fitness, log enrichment relative to wild type (log ratio); higher = more active; in vitro selection for triplet polymerase activity. An outline of the steps: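 Frozen incubation at −7 °C formed the core of a single, triplicate in vitro selection round applied to PCR-built, transcribed mutant libraries of each subunit of a heterodimeric triplet polymerase ribozyme. Extended constructs were gel-excised, captured with streptavidin beads and amplified by RT-PCR, and input and output libraries were Illumina-sequenced with a filter of ≥10 input reads and ≥1 read per output. Fitness is the logarithm of genotype enrichment relative to wild-type enrichment, with inverse-variance-weighted replicate averaging, and the logarithm is base 2.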
On to GGAUCUUCUCGAUCUAACAAAAAAGACAAUUCUGCCACAAAGCUUGAGAGCAUCUUCGGAUGCAGAGGCAGCAGCCUUCGGUGGCGCGAUAGCGGCAACGUUGUCAACUAUGACACGCAAAACGCGUGCUCCUUUGAAUGGAGUUUAUCAUG [A30U G70A C95G C103G G133U], for which the “polymerase ribozyme fitness (log ratio)” value was not above -4.2. Consider GGAUCUUCUCGAUCUAACAAAAAAGACAAUUCUGCCACAAAGCUUGAGAGCAUCUUCGGAUGCAGAGUCGGCAGCCUUCGGUGGCGCGAUAACGCCAGUGUUCUCAACUAUGACACGCAAAACGCGUGCUCCGUUGAAUUGAGAUUAUCAUG [A30U G68U G92A A98G C99U G140U U144A], for which the “polymerase ribozyme fitness (log ratio)” value was not above -4.2. With GGAUCUUCUCGAUCUAACAAAAAAGACAAUUCUGCCACAAAGCUUGAGAGCAUCUUCGGAUGCAGAGUCGGCUGCCUUCGGUGGCGCGAUAGCGCCAACGUUCUCAACUAUGACACGCAAAACGCGUGCUCCGUUGAAUUGAGUUUAUCAUG [A30U G68U A73U G140U], the “polymerase ribozyme fitness (log ratio)” value was not above -4.2. As for GGAUCUUCUCGAUCUAACAAAAAAGACAAUUCUGCCACAAAGCUUGAGAGCAUCUUCGCAUGCAGAGGCGGCAGCCUUCGGUGGCCCGAUAGCGCCUACGUUCUCAUCCAUGACACGCAAAACGCGUGCUCCGUUGAAUGGAGUUUCUCAUG [A30U G59C G86C A97U A107U U109C A147C], the “polymerase ribozyme fitness (log ratio)” value was not above -4.2. Regarding GGAUCUUCUCGAUCUAACAAAAAAGACAAUUCUGCCACAAAGCUUGAGAGCAUCUUCGGAUGCAGAGGCGCCAGCCUUCGGUGGCGCGAUAGCGACAACGUUCUCAACUAUGACACGCAAAACGCGUGCUCCGUUGAAUGGAGUUUAUCAUG [A30U G71C C95A], the “polymerase ribozyme fitness (log ratio)” value is not above -4.2. For GGAUCUUCUCGAUCUAACAAAAAAGACAAUUCUGCCACAAAGCUUGAGAGCAUCUUCGGAUGCAGAGACGGCAGCCUUCGGUGGCGCGAUGGCGCCAAGGUUCUCAAUUAUGACACGCAAAACGCGUGCUCCGUUGAAUGGAGUUUAUCAUG [A30U G68A A91G C99G C108U] the value was not above -4.2; for GGAUCUUCUCGAUCUAACAAAAAAGACAAUUCUGCCACAAAGCUUGAGAGCAUCUUCGGAUGCAGAGGCGGCAGCCUUCGGUGGCUCGAUAGCGCCAACGUUCUCAACUAUGACACGCAAAACGCGUGCUCCGUUGAAUGGAGUUUAUCAUG [A30U G86U], not above -4.2; for GGAUCUUCUCGAUCUAACAAAAAAGACAAUUCUGCCACAAAGCUUGAGAGCAUCUUCCGAUGCAGAGACGGCAGCCUUCGGUGGCGCGAUAGCGCCAAAGUUCUCAACUAUGACACGCAAAACGCGUGCUCCGUUGAAUGGAGUUUAUCAUG [A30U G58C G68A C99A], not above -4.2.

Consider GGAUCUUCUCGAUCUAACAAAAAAGACAAUUCUGCCACAAAGCUUGAGAGCAUCUUCGGAUGCAGAGGCUGCAGCCUUCGGUGGCGCGAUAGCGCCAACGUUCUCAACUAUGACACGCAAAACGCGUGCUCCGUUGAAUGGAGUUUAUCAUG [A30U G70U], for which the “polymerase ribozyme fitness (log ratio)” value is not above -4.2. The value for GGAUCUUCUCGAUCUAACAAAAAAGACAAUUCUGCCACAAAGCUUGAGAGCAUCUUCGGAUGCAGAGGCAGCAGCCUUCGGUGGCGCGAUAGCGCCAACGUUCUCAACUAUGACACGCAAAACGCGUGCUCCGUUGAAUGGAGUUUAUCAUG [A30U G70A] was not above -4.2; that for GGAUCUUCUCGAUCUAACAAAAAAGACAAUUCUGCCACAAAGCUUGAGAGCAUCUUCGGAUGCAGAGGCGGCAGCCUUCGGUGGCGCAAUAGCGCCAACGUUCUCAACUAUGACACGCAAAACGCGUGCUCCGUUGAAUGGAGUUUAUCAUG [A30U G88A] was not above -4.2. GGAUCUUCUCGAUCUAACAAAAAAGACAAUUCUGCCACAAAGCUUGAGAGCAUCUUCGGAUGCAUAGGCGGCUGCCUUCGGUGGCGCGAUAGCGCCAACGUUCUCAACUAUGUCACGCAAAACGCGUGCUCCGUUGAAUGGAGUUCAUCAUG [A30U G65U A73U A113U U146C]: the “polymerase ribozyme fitness (log ratio)” value was not above -4.2. Take GGAUCUUCUCGAUCUAACAAAAAAGACAAUUCUGCCACAAAGCUUGAGAGCAUCUUCUGAUGCAGAGGCGGCAGCCUUCGGUGGCGCGAUACCGCGAACGUUCUCAACUAUGACACACAAAAGGCGUGCUCCGUUGAAUGGAGUUUAUCAUG [A30U G58U G92C C96G G117A C123G]: the “polymerase ribozyme fitness (log ratio)” value was not above -4.2. Consider GGAUCUUCUCGAUCUAACAAAAAAGACAAUUCUGCCACAAAGCUUGAGAGCAUCUUCGGAUGCAGAGGCGGCAACCUUCGGUGGCGCGAUAGGGCCAACGUUAUCGACUAUGUCACGCAAAACGCGUGCUCCGUUGAAUGGAGUUUAUCAUG [A30U G74A C93G C103A A106G A113U], for which the “polymerase ribozyme fitness (log ratio)” value was not above -4.2. As for GGAUCUUCUCGAUCUAACAAAAAAGACAAUUCUGCCACAAAGCUUGAGAGCAUCUUCGGAUGCAGAGGCGGCAGCCUUCGGUGGCGCGAUAUCGCCAACGUUCUCAACUAUGACACGCAAAACGCGUGCUCCGUUGAAUGGAGUUUAUCAUG [A30U G92U], the “polymerase ribozyme fitness (log ratio)” value was -3.52. As for GGAUCUUCUCGAUCUAACAAAAAAGACAAUUCUGCCACAAAGCUUGAGAGCAUCUUCGGAUGCAGAGGCGGCAGCCUUCGGUGGCGCGAUAACGCCAAGGUUCUCAACUAUGACACACAAAACGCGUGCUCCGUUGAAUGGAGUUUAUCAUG [A30U G92A C99G G117A], the “polymerase ribozyme fitness (log ratio)” value is not above -4.2. As for GGAUCUUCUCGAUCUAACAAAAAAGACAAUUCUGCCACAAAGCUUGAGAGCAUCUUCGUAUGCAGAGGCGGCAGCCUUCGGUGGUGCGAUAGCGGCAACGUUCUCAACUAUGACACGCAAAACGCGUGCUCCGUUGAAUGGAGUUUAUGAUG [A30U G59U C85U C95G C149G], the “polymerase ribozyme fitness (log ratio)” value is not above -4.2. As to GGAUCUUCUCGAUCUAACAAAAAAGACAAUUCUGCCACAAAGCUUGAGAGCAUCUUCGGAUGCAGAGGCGGCAGCCUUCGGUGGCGCGAUAGCCCCAACGUUCUCAACUAUGACACGCAAGACGCGUGCUCCGUUGAAUGGAGUUUAUCAUG [A30U G94C A121G], the “polymerase ribozyme fitness (log ratio)” value was -3.43. As for GGAUCUUCUCGAUCUAACAAAAAAGACAAUUCUGCCACAAAGCUUGAGAGCAUCUUCGGAUCCAGAGGCGGCAGCCUUCGGUGGCGCGAUACCGCCAACGUUCUCAACUAUGACACGCAAAACGCGUGCUCCGUUGAAUGGAGUUUAUCAUG [A30U G62C G92C], the “polymerase ribozyme fitness (log ratio)” value is not above -4.2.

Values taken from the RNAGym collection of RNA variant scans (doi:10.1073/pnas.2313332121).
